Results as given in paper PMC3103547.
Changes are numbered by the printed parent chain. In names and notes the source's numbering stands. Results are given in words; binding and its absence hold for the method and conditions named. Some results given as binding are weak or reduced against the parent protein; the word gives no strength. Tags and fused reporters may be left off the sequences shown.

Legend:
Assay in all cases: native gel or EMSA; HEK cells 48 h after transfection, scraped into ice cold native gel buffer (0.62 mM Tris HCl pH 6.8, 10% glycerol), sonicated briefly; 7.5% native polyacrylamide gel, Western blot with anti-V5; upper region dimer, lower region monomer
[1] = molecular target: Spermine synthase (SMS) V132Q, V5-tagged (human) (UniProt P52788)
[2] = molecular target: Spermine synthase (SMS) V132W, V5-tagged (human) (UniProt P52788)
[3] = molecular target: Spermine synthase (SMS) G56D, V5-tagged (human) (UniProt P52788)
[4] = molecular target: Spermine synthase (SMS) G56L, V5-tagged (human) (UniProt P52788)
[5] = molecular target: Spermine synthase (SMS) G56W, V5-tagged (human) (UniProt P52788)
[6] = molecular target: Spermine synthase (SMS) G56Y, V5-tagged (human) (UniProt P52788)

B1: Spermine synthase (SMS) V132Q, V5-tagged (enzyme, UniProt P52788 1-366)
chain: MAAARHSTLDFMLGAKADGETILKGLQSIFQEQGMAESVHTWQDHGYLATYTNKNGSFANLRIYPHGLVLLDLQSYDGDAQGKEEIDSILNKVEERMKELSQDSTGRVKRLPPIVRGGAIDRYWPTADGRLQEYDIDEVVYDEDSPYQNIKILHSKQFGNILILSGDVNLAESDLAYTRAIMGSGKEDYTGKDVLILGGGDGGILCEIVKLKPKMVTMVEIDQMVIDGCKKYMRKTCGDVLDNLKGDCYQVLIEDCIPVLKRYAKEGREFDYVINDLTAVPISTSPEEDSTWEFLRLILDLSMKVLKQDGKYFTQGNCVNLTEALSLYEEQLGRLYCPVEFSKEIVCVPSYLELWVFYTVWKKAKP
B1 was tested, and the binding [1] was “binds”.

B2: Spermine synthase (SMS) V132W, V5-tagged (enzyme, UniProt P52788 1-366)
chain: B1 chain with Q132W
B2 was tested, and the binding [2] was “binds”.

B3: Spermine synthase (SMS) G56D, V5-tagged (enzyme, UniProt P52788 1-366)
chain: B1 chain with G56D, Q132V
With B3 the binding [3] was “no binding”.

B4: Spermine synthase (SMS) G56L, V5-tagged (enzyme, UniProt P52788 1-366)
chain: B1 chain with G56L, Q132V
With B4 the binding [4] was “no binding”.

B5: Spermine synthase (SMS) G56W, V5-tagged (enzyme, UniProt P52788 1-366)
chain: B1 chain with G56W, Q132V
With B5 the binding [5] was “no binding”.

B6: Spermine synthase (SMS) G56Y, V5-tagged (enzyme, UniProt P52788 1-366)
chain: B1 chain with G56Y, Q132V
With B6 the binding [6] was “no binding”.
